PubChem BioAssay AID1347073 (National Center for Advancing Translational Sciences (NCATS), 2019)
Out of some 45,000 compounds screened, about 200 (0.44%) were called active. Not shown: some 7% with an inconclusive outcome. Calls come from the whole dose curve; as a rule, active = well fitted activation curve with a large enough effect; inconclusive = small, poorly fitted or top-dose-only effect; inactive = no such curve, though single readings can be large or run the other way. Some of the results follow.

Assay: qHTS of TDP-43 Inhibitors: NCGC Sytravon Library Screen; note: nearly all actives have a fitted effect of over 55% in size; for growth rescue (activation): 0% is about no effect
Conditions: yeast TDP-43 toxicity rescue, BacTiter-Glo growth, 24 h; series mostly up to 46.1 µM; growth rescue (activation): at the top concentration
Description: The goal of this project is to identify new chemical probes capable of reversing the toxicity associated with TDP-43 which is associated with frontotemporal lobar degeneration and amyotrophic lateral sclerosis. These compounds will provide a complementary approach to deciphering the tangled mechanisms of toxicity and protection that we have uncovered through genome-wide genetic screens and are beginning to uncover in a large-scale proteomics analysis with mass spectroscopy. To this end, a miniaturized assay was developed to be screened against the Molecular Libraries Small Molecule Repository (MLSMR) to discover TDP-43 inhibitors. Please note that in the set-up this yeast-based assay compounds that inhibit as TDP-43, have a read-out as activators. NIH Chemical Genomics Center [NCGC] NIH Molecular Libraries Probe Centers Network [MLPCN] Assay Submitter (PI): Susan Lindquist, Whitehead Institute/MIT MLPCN Grant: R21 NS060957
Dispense 2.5 microL yeast galactose medium per 1536-well plate, pin compound, dispense 2.5 microL TDP-43 expressing yeast in galactose medium at OD600=0.02 (pregrown in raffinose medium to mid-log phase) per well, incubate for 24 hr at 30 deg C, and cell growth will be measured using 5 microL of Bactiter/Glo reagent to entire plate and read using Luminescence Protocol in ViewLux.
Potency is the fitted concentration of half-maximal effect.

Compound | growth rescue (activation) | Potency
COc1cc(/C=N/NC(=O)C2CC(=O)N(c3ccc(C)cc3)C2)cc(OC)c1OC (stereo not drawn) | inactive: 4.16% | 
COc1ccc(C(=O)CSc2nnc3ccccn23)cc1OC | inactive: -3.27% | 
CCN1CCN(C(c2ccc(OC)cc2)c2nnnn2Cc2ccc3c(c2)OCO3)CC1 (stereo not drawn) | inactive: 8.31% | 
COc1ccc(Nc2nnc(C)c(=O)[nH]2)c(OC)c1 | inactive: 9.59% | 
COc1ccc(CCNC(=O)c2cc(-c3ccco3)on2)cc1OC | inactive: 15.3% | 
O=c1[nH]c2ccccc2nc1/C=C/c1ccc(F)cc1 | inactive: 9.26% | 
CCc1nc2c(OCc3cccc(Cl)c3)cccn2c1N(C)C(C)=O | inactive: 3.85% | 
CCN(c1ccc(OC)cc1)S(=O)(=O)c1nnc(NC(=O)C(C)C)s1 | inactive: -0.215% | 
Cc1c(N2C(=O)c3ccc4c5c(ccc(c35)C2=O)CC4)c(=O)n(-c2ccccc2)n1C | inactive: 5.71% | 
N#CCCN(C(=O)COc1ccc(F)cc1Br)c1ccccc1F | inactive: 6.62% | 
N#Cc1ccccc1OCc1nnc(-c2ccccc2Br)o1 | inactive: 5.51% | 
Cn1cc(Cl)c(C(=O)Nc2nccs2)n1 | inactive: -3.31% | 
COc1cccc(C(=O)Nc2cc(S(=O)(=O)N3CCCCC3)ccc2OC)c1 | inactive: 9.53% | 
CCOC(=O)c1ccccc1Cc1nc2ccccc2c(=O)[nH]1 | inactive: 3.86% | 
O=c1[nH]c(CN2CCN(c3ccccc3O)CC2)nc2ccccc12 | inactive: 7.6% | 
O=C(Nc1nc2ccc(S(=O)(=O)N3CCCC3)cc2s1)c1ccco1 | inactive: -16.3% | 
CCC(C)c1ccccc1NC(=O)COc1ccc(-c2nnco2)cc1 (stereo not drawn) | inactive: 24.4% | 
Cc1cccc(NC(=O)Cc2c(F)cccc2Cl)n1 | inactive: 14.6% | 
CCCCNC(=O)C1(C)CCCCN1C(=O)c1ccc(F)cc1Cl (stereo not drawn) | inactive: 6.04% | 
COc1ccccc1Oc1ccnc2cc(Cl)ccc12 | inactive: 7.44% | 
CC(C)N(C)C(=O)CCc1nnc(CCc2c[nH]c3ccccc23)o1 | inactive: -2.17% | 
COc1ccc(CCNC(=O)C2CCCN(S(C)(=O)=O)C2)cc1 (stereo not drawn) | inactive: -24.3% | 
Cc1ccc(-n2c(C)nnc2SCC(=O)N2CCOCC2)cc1 | inactive: 24.1% | 
Cc1cc(NC(=O)CCC(=O)N(CC(=O)NC2CCCC2)Cc2ccc3c(c2)OCO3)no1 | inactive: 12.8% | 
CN(Cc1ccccc1)C(=O)[C@H]1CCC(=O)N1Cc1ccco1 | inactive: 2.92% | 
COc1ccc(N(CC(O)Cn2c(C)nc3ccccc32)S(=O)(=O)c2ccccc2)cc1 (stereo not drawn) | inactive: -3.52% | 
CCOC(=O)c1c(NC(=O)CNC2CCCc3ccccc32)sc(C(N)=O)c1C (stereo not drawn) | inactive: -4.25% | 

Compound | growth rescue (activation) | Potency
O=C(NCc1ccccc1)NCc1cccs1 | inactive: 16.1% | 
C/C(=N/NC(=O)c1ccc2c(c1)OCCO2)c1ccc([N+](=O)[O-])cc1 | inactive: 9.78% | 
Cc1cccc(C2NC(c3cccc(C)c3)C([N+](=O)[O-])C(C)(C)C2[N+](=O)[O-])c1 (stereo not drawn) | inactive: 16.1% | 
Cc1ccc(C(=O)Nc2cc(C)nn2CCC#N)cc1 | inactive: -5.12% | 
N#CCc1nc2ccc(S(=O)(=O)N3CCOCC3)cc2s1 | inactive: -25.4% | 
Cc1ccnc(N/C=C(/NC(=O)c2ccccc2)C(=O)N/N=C\c2ccc(F)cc2)n1 | inactive: -8.32% | 
CN(C)c1ccc(/C=[N+](\[O-])C2N(c3ccccc3)C(=S)SC2(C)C)cc1 (stereo not drawn) | inactive: -19.9% | 
CC(C)CC(=O)NC(=S)NNC(=O)c1ccc([N+](=O)[O-])cc1 |  | active: 11.2 µM
CC(c1ccccc1)N1CC(C(=O)Nc2nccs2)CC1=O (stereo not drawn) | inactive: 17.3% | 
Cc1ccc2nc(Cl)c3cc(C(=O)NCCCN4CCCC4)sc3c2c1 | inactive: 8.7% | 
CCc1nc2c(OCC=C(C)C)cccn2c1N(C)C(=O)c1ccccc1F | inactive: 8.72% | 
CCNC(=O)Nc1ccc2c(c1)c(=O)n(C)n2Cc1ccc(Cl)cc1 | inactive: 11.5% | 
COc1ccc(NC(=O)COC(=O)COc2ccc(Br)cc2)cc1 | inactive: -12.2% | 
Cc1cc(NC(=O)CSc2nc3c(cnn3-c3cccc(Cl)c3)c(=O)[nH]2)no1 | inactive: 23% | 
COc1cccc(CNC(=O)CCC2CCCN(C(=O)c3cc(C)[nH]n3)C2)c1 (stereo not drawn) | inactive: 5.37% | 
CC(=O)Nc1cccc(-c2ccnc3c2CC(C(=O)Nc2ccc4c(c2)OCO4)O3)c1 (stereo not drawn) | inactive: -7.94% | 
COc1cc(/C=C/C(=O)N2CCCc3ccccc32)cc(OC)c1OC | inactive: 21.1% | 
COc1ccc(C2C(C(C)=O)=C(O)C(=O)N2c2ccccn2)cc1 (stereo not drawn) | inactive: -6.76% | 
O=C(Cc1ccccc1)Nc1c(C(=O)c2ccccc2)oc2ccccc12 | inactive: 14.8% | 
Cc1nn(-c2ncc(C(F)(F)F)cc2Cl)c(=O)n1-c1ccccc1Cl | inactive: 46.1% | 
Cc1cc(=O)[nH]c(SCC(=O)Nc2cc(S(=O)(=O)N(C)C)ccc2Cl)n1 | inactive: 8.58% | 
O=C(NCCN1C(=O)S/C(=C\c2ccc(F)cc2)C1=O)c1cccc(S(=O)(=O)N2CCOCC2)c1 | inactive: 6.48% | 
OCc1ccccc1-c1cccc2nccn12 | inactive: 0.979% | 
COc1ccc(N(CC(=O)NCc2ccc(F)cc2)C(=O)Cn2nnc(-c3ccc(C)o3)n2)cc1OC | inactive: 12.6% | 
Cc1ccn2cc(-c3cccc(NS(C)(=O)=O)c3)nc2c1 | inactive: -10.3% | 
Cc1cccc(C)c1NC(=O)COC(=O)c1cccc2c1C(=O)c1ccccc1C2=O | inactive: 1.59% | 
